In the supplement of paper PMC4604168 (melanoma cell lines):
This is one part of the list. Many values rest on one well or one pass, so single values are uncertain.

Tests used:
Assay in all cases: cell count relative to DMSO control; melanoma cells; higher = more viable cells
Conditions in all cases: library dose: low library concentration; 72 h
MZ2-MEL = test system: MZ2-MEL
MeWo = test system: MeWo
RPMI7951 = test system: RPMI7951
RVH-421 = test system: RVH-421
SkMel28 = test system: SkMel28
SkMel30 = test system: SkMel30
UACC62 = test system: UACC62
WM115 = test system: WM115
WM1716 = test system: WM1716
WM1745 = test system: WM1745
WM3526 = test system: WM3526
WM3619 = test system: WM3619
WM451Lu = test system: WM451Lu
SkMel5 = test system: SkMel5
UACC257 = test system: UACC257
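Further: cell number obtained by counting DAPI-stained nuclei in high-throughput microscope images with image analysis software, screen run in 1,536-well plates.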

Structure (SMILES) | cell count (MZ2-MEL) [%] | cell count (MeWo) [%] | cell count (RPMI7951) [%] | cell count (RVH-421) [%] | cell count (SkMel28) [%] | cell count (SkMel30) [%] | cell count (UACC62) [%] | cell count (WM115) [%] | cell count (WM1716) [%] | cell count (WM1745) [%] | cell count (WM3526) [%] | cell count (WM3619) [%] | cell count (WM451Lu) [%] | cell count (SkMel5) [%] | cell count (UACC257) [%]
CO[C@H]1C[C@@H]2CC[C@@H](C)[C@@](O)(O2)C(=O)C(=O)N2CCCC[C@H]2C(=O)O[C@H]([C@H](C)C[C@@H]2CC[C@@H](OCCO)[C@H](OC)C2)CC(=O)[C@H](C)/C=C(\C)[C@@H](O)[C@@H](OC)C(=O)[C@H](C)C[C@H](C)/C=C/C=C/C=C/1C [everolimus] + Cn1nnc2c(C(N)=O)ncn2c1=O [temozolomide] (first compound 0.02 µM, partner dose 2 µM) | 74.9 | 65.2 | 69.3 | 57.5 | 67.8 | 64.4 | 60.1 | 77.9 | 77 | 70.1 | 59.8 | 56.5 | 90.3 |  | 
CO[C@H]1C[C@@H]2CC[C@@H](C)[C@@](O)(O2)C(=O)C(=O)N2CCCC[C@H]2C(=O)O[C@H]([C@H](C)C[C@@H]2CC[C@@H](OCCO)[C@H](OC)C2)CC(=O)[C@H](C)/C=C(\C)[C@@H](O)[C@@H](OC)C(=O)[C@H](C)C[C@H](C)/C=C/C=C/C=C/1C [everolimus] + CC(=O)c1c(C)c2cnc(Nc3ccc(N4CCNCC4)cn3)nc2n(C2CCCC2)c1=O [palbociclib] (first compound 0.02 µM, partner dose 0.04 µM) | 60.9 | 66 | 80.4 | 64 | 64.6 | 45.9 | 47.4 | 79.2 | 64 | 71.3 | 47.5 | 58.6 | 54.9 |  | 
CC(=O)O[C@@]12CO[C@@H]1C[C@H](O)[C@@]1(C)C(=O)[C@H](O)C3=C(C)[C@@H](OC(=O)[C@H](O)[C@@H](NC(=O)OC(C)(C)C)c4ccccc4)C[C@@](O)([C@@H](OC(=O)c4ccccc4)[C@H]21)C3(C)C [Docetaxel] + CO[C@H]1C[C@@H]2CC[C@@H](C)[C@@](O)(O2)C(=O)C(=O)N2CCCC[C@H]2C(=O)O[C@H]([C@H](C)C[C@@H]2CC[C@@H](OCCO)[C@H](OC)C2)CC(=O)[C@H](C)/C=C(\C)[C@@H](O)[C@@H](OC)C(=O)[C@H](C)C[C@H](C)/C=C/C=C/C=C/1C [everolimus] (first compound 0.0001 µM, partner dose 0.02 µM) | 39.7 | 41.1 | 41.6 | 57.1 | 21.3 | 32.4 | 27.3 | 55.3 | 35.2 | 51.7 | 40.6 | 69.7 | 63.2 |  | 
CO[C@H]1C[C@@H]2CC[C@@H](C)[C@@](O)(O2)C(=O)C(=O)N2CCCC[C@H]2C(=O)O[C@H]([C@H](C)C[C@@H]2CC[C@@H](OCCO)[C@H](OC)C2)CC(=O)[C@H](C)/C=C(\C)[C@@H](O)[C@@H](OC)C(=O)[C@H](C)C[C@H](C)/C=C/C=C/C=C/1C [everolimus] + Oc1nc(-c2ccc(C(F)(F)F)cc2)nc2c1CSCC2 [XAV939] (first compound 0.02 µM, partner dose 2 µM) | 74.7 | 66.5 | 78.7 | 78.7 | 50.5 | 89.3 | 57.8 | 74.7 | 50.2 | 91.8 | 65.9 | 62.4 | 73 | 73.3 | 65.2
CO[C@H]1C[C@@H]2CC[C@@H](C)[C@@](O)(O2)C(=O)C(=O)N2CCCC[C@H]2C(=O)O[C@H]([C@H](C)C[C@@H]2CC[C@@H](OCCO)[C@H](OC)C2)CC(=O)[C@H](C)/C=C(\C)[C@@H](O)[C@@H](OC)C(=O)[C@H](C)C[C@H](C)/C=C/C=C/C=C/1C [everolimus] + NCC(=O)Nc1ccc(-n2nc(C(F)(F)F)cc2-c2ccc3c(ccc4ccccc43)c2)cc1 [OSU03012] (first compound 0.02 µM, partner dose 1 µM) | 78.9 | 56.8 | 96.2 | 87.5 | 61.4 | 64.7 | 84.7 | 75.6 | 92.1 | 92.4 | 63 | 154 | 58.6 | 121 | 59.4
CO[C@H]1C[C@@H]2CC[C@@H](C)[C@@](O)(O2)C(=O)C(=O)N2CCCC[C@H]2C(=O)O[C@H]([C@H](C)C[C@@H]2CC[C@@H](OCCO)[C@H](OC)C2)CC(=O)[C@H](C)/C=C(\C)[C@@H](O)[C@@H](OC)C(=O)[C@H](C)C[C@H](C)/C=C/C=C/C=C/1C [everolimus] + Cc1nc(Nc2ncc(C(=O)Nc3c(C)cccc3Cl)s2)cc(N2CCN(CCO)CC2)n1 [dasatanib] (first compound 0.02 µM, partner dose 0.004 µM) | 63.1 | 68.3 | 50.1 | 83.5 | 55 | 57.7 | 60.4 | 70.9 | 68.3 | 71.1 | 59.3 | 69 | 81.5 |  | 
CO[C@H]1C[C@@H]2CC[C@@H](C)[C@@](O)(O2)C(=O)C(=O)N2CCCC[C@H]2C(=O)O[C@H]([C@H](C)C[C@@H]2CC[C@@H](OCCO)[C@H](OC)C2)CC(=O)[C@H](C)/C=C(\C)[C@@H](O)[C@@H](OC)C(=O)[C@H](C)C[C@H](C)/C=C/C=C/C=C/1C [everolimus] + C#Cc1cccc(Nc2ncnc3cc(OCCOC)c(OCCOC)cc23)c1 [erlotinib] (first compound 0.02 µM, partner dose 0.8 µM) | 69 | 68.8 | 71.8 | 96.1 | 68.5 | 60.5 | 77.3 | 74.2 | 77.2 | 81.5 | 84.5 | 92.9 | 91.7 |  | 
CO[C@H]1C[C@@H]2CC[C@@H](C)[C@@](O)(O2)C(=O)C(=O)N2CCCC[C@H]2C(=O)O[C@H]([C@H](C)C[C@@H]2CC[C@@H](OCCO)[C@H](OC)C2)CC(=O)[C@H](C)/C=C(\C)[C@@H](O)[C@@H](OC)C(=O)[C@H](C)C[C@H](C)/C=C/C=C/C=C/1C [everolimus] + COC(=O)c1sccc1S(=O)(=O)Nc1ccc(Nc2ccccc2)cc1OC [GSK0660] (first compound 0.02 µM, partner dose 1 µM) | 72.6 | 76.9 | 90.3 | 115 | 52 | 59.4 | 75.8 | 76.2 | 93.2 | 74.4 | 53.2 | 75.9 | 70.3 | 101 | 77.3
CO[C@H]1C[C@@H]2CC[C@@H](C)[C@@](O)(O2)C(=O)C(=O)N2CCCC[C@H]2C(=O)O[C@H]([C@H](C)C[C@@H]2CC[C@@H](OCCO)[C@H](OC)C2)CC(=O)[C@H](C)/C=C(\C)[C@@H](O)[C@@H](OC)C(=O)[C@H](C)C[C@H](C)/C=C/C=C/C=C/1C [everolimus] + Nc1ncn([C@H]2C[C@H](O)[C@@H](CO)O2)c(=O)n1 [decitabine] (first compound 0.02 µM, partner dose 0.1 µM) | 70.2 | 75.1 | 81.5 | 86.2 | 53.5 | 84.6 | 64.7 | 86.4 | 69 | 91.7 | 70.7 | 59.7 | 89.4 |  | 
CO[C@H]1C[C@@H]2CC[C@@H](C)[C@@](O)(O2)C(=O)C(=O)N2CCCC[C@H]2C(=O)O[C@H]([C@H](C)C[C@@H]2CC[C@@H](OCCO)[C@H](OC)C2)CC(=O)[C@H](C)/C=C(\C)[C@@H](O)[C@@H](OC)C(=O)[C@H](C)C[C@H](C)/C=C/C=C/C=C/1C [everolimus] + CNC(=O)c1cc(Oc2ccc(NC(=O)Nc3ccc(Cl)c(C(F)(F)F)c3)cc2)ccn1 [sorafenib] (first compound 0.02 µM, partner dose 0.4 µM) | 67.8 | 76.4 | 93.3 | 93.5 | 47.2 | 80.7 | 72.4 | 94.2 | 83.2 | 92.3 | 76 | 77.2 | 72.8 |  | 
CO[C@H]1C[C@@H]2CC[C@@H](C)[C@@](O)(O2)C(=O)C(=O)N2CCCC[C@H]2C(=O)O[C@H]([C@H](C)C[C@@H]2CC[C@@H](OCCO)[C@H](OC)C2)CC(=O)[C@H](C)/C=C(\C)[C@@H](O)[C@@H](OC)C(=O)[C@H](C)C[C@H](C)/C=C/C=C/C=C/1C [everolimus] + O=S(=O)(c1ccccc1)N(CC(F)(F)F)c1ccc(C(O)(C(F)(F)F)C(F)(F)F)cc1 [T0901317] (first compound 0.02 µM, partner dose 1.4 µM) | 73.1 | 72.8 | 87.9 | 80.2 | 51.4 | 50.4 | 61.1 | 79.5 | 62.5 | 85.3 | 63.6 | 60.9 | 78 | 85.9 | 58.4
CO[C@H]1C[C@@H]2CC[C@@H](C)[C@@](O)(O2)C(=O)C(=O)N2CCCC[C@H]2C(=O)O[C@H]([C@H](C)C[C@@H]2CC[C@@H](OCCO)[C@H](OC)C2)CC(=O)[C@H](C)/C=C(\C)[C@@H](O)[C@@H](OC)C(=O)[C@H](C)C[C@H](C)/C=C/C=C/C=C/1C [everolimus] + Nc1nc(F)nc2c1ncn2[C@@H]1O[C@H](CO)[C@@H](O)[C@@H]1O [fludarabine] (first compound 0.02 µM, partner dose 0.2 µM) | 89.6 | 35.5 | 67.3 | 87.8 | 39.4 | 15.8 | 57.4 | 77.1 | 69.1 | 91.7 | 25.4 | 81.8 | 42.4 |  | 
CO[C@H]1C[C@@H]2CC[C@@H](C)[C@@](O)(O2)C(=O)C(=O)N2CCCC[C@H]2C(=O)O[C@H]([C@H](C)C[C@@H]2CC[C@@H](OCCO)[C@H](OC)C2)CC(=O)[C@H](C)/C=C(\C)[C@@H](O)[C@@H](OC)C(=O)[C@H](C)C[C@H](C)/C=C/C=C/C=C/1C [everolimus] + CCCS(=O)(=O)Nc1ccc(F)c(C(=O)c2c[nH]c3ncc(Cl)cc23)c1F [PLX4720] (first compound 0.02 µM, partner dose 0.08 µM) | 70.8 | 67.9 | 64.9 | 82.1 | 55.7 | 70.1 | 38.2 | 74.6 | 76.4 | 84.4 | 66.2 | 65.4 | 62.2 |  | 
